# Laboratory results reported in PubChem BioAssay AID2202238 (Ras Initiative Chemistry Research Team, Frederick National …, 2025).
# Screen size: about 2,200 compounds; fewer than 10 were called active. The list shows a part of the results. Entries without a call are filed as inconclusive in the source.
# Molecular target: GTPase KRas (Homo sapiens) (UniProt P01116)
# Experiment: Fragment capture on engineered cysteines, share of protein labelled (AID 2202238)
# Parameters: protein at 5 µM with 500 µM competing thiol for 1.5 h
# Settings: KRAS G12D cysteine mutants, disulfide tethering, MALDI-TOF labeling; stronger effect = higher value; H27C mutant labeling; fragment at 500 µM
# Chain of UniProt P01116 (P01116 whole entry, looked up, the tested form may be a part): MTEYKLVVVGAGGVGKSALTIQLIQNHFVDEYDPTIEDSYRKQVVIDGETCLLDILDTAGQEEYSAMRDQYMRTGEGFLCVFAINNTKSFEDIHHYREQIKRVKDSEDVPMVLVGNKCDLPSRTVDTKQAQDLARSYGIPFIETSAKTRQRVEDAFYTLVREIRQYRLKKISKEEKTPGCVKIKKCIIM
row,SMILES,percent labeling [%]
1,CN1CCCC2(CCN(C(=O)CCS)CC2)C1,49.1
2,CN1CCc2nc3ccccc3c(C(=O)NCCS)c2C1,39.7
3,CCOC(=O)C12CC(CNC(=O)CCS)(C1)OC2c1ccccc1 (configuration not stated),32.4
4,O=C(CCS)N1C[C@@H]2C[C@H](C1)c1cccc(=O)n1C2,35.3
5,N#Cc1cc2c([nH]c1=O)CC1CCC2N1C(=O)CCS (configuration not stated),35.6
6,O=C(CCS)NCC12CC(CN1C1CC1)C2,47.8
7,Cc1c(C(=O)NCCS)c2ccccc2n1Cc1ccccc1,33.8
8,O=C(NCCS)c1cn(Cc2ccccc2)c2ccccc12,28.8
9,O=C(NCCS)C1CCCC2CCCN21 (configuration not stated),50.5
10,N#Cc1ccc(N2CC(C(=O)NCCS)CC2=O)cc1Cl (configuration not stated),31.7
11,Cc1cc(NC(=O)CCS)cc(N2CCN(C)CC2)c1,60.4
12,O=C(NCCS)C1CCC2CCCCN21 (configuration not stated),42.9
